Laboratory results: the supplement of paper PMC8728848
The list shows a part of the results.

What was measured:
Experiment in all cases: glycan array binding signal (z-score within array); higher = stronger binding
Settings in all cases: glycan notation: IUPAC condensed, linker removed
Fuc(a1-2)Gal = target: Fuc(a1-2)Gal
Method in brief: (§1)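 Negative Z-scores can be read as non-binding. The Z-score is calculated within each array and then averaged across arrays of one protein sequence at different concentrations or buffers and across linkers. Arrays, 3228 in all, were curated from the Consortium for Functional Glycomics database and kept only where the protein sequence was available.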

Fuc(a1-2)Gal(b1-3)GalNAc = target: Fuc(a1-2)Gal(b1-3)GalNAc
Method in brief: as §1

[1] = target: Fuc(a1-2)Gal(b1-3)GalNAc(b1-3)Gal
Method in brief: as §1

[2] = target: Fuc(a1-2)Gal(b1-3)GalNAc(b1-3)Gal(a1-4)Gal(b1-4)Glc
Method in brief: as §1

[3] = target: Fuc(a1-2)Gal(b1-3)GalNAc(b1-4)[Neu5Ac(a2-3)]Gal(b1-4)Glc
Method in brief: as §1

Fuc(a1-2)Gal(b1-3)GlcNAc = target: Fuc(a1-2)Gal(b1-3)GlcNAc
Method in brief: as §1

[4] = target: Fuc(a1-2)Gal(b1-3)GlcNAc(b1-3)Gal(b1-4)Glc
Method in brief: as §1

[5] = target: Fuc(a1-2)Gal(b1-3)[Fuc(a1-4)]GlcNAc
Method in brief: as §1

Fuc(a1-2)Gal(b1-4)Glc = target: Fuc(a1-2)Gal(b1-4)Glc
Method in brief: as §1

Fuc(a1-2)Gal(b1-4)Glc6S = target: Fuc(a1-2)Gal(b1-4)Glc6S
Method in brief: as §1

Fuc(a1-2)Gal(b1-4)GlcNAc = target: Fuc(a1-2)Gal(b1-4)GlcNAc
Method in brief: as §1

[6] = target: Fuc(a1-2)Gal(b1-4)GlcNAc(b1-3)Gal(b1-4)GlcNAc
Method in brief: as §1

[7] = target: Fuc(a1-2)Gal(b1-4)GlcNAc(b1-3)Gal(b1-4)GlcNAc(b1-3)Gal(b1-4)GlcNAc
Method in brief: as §1

[8] = target: Fuc(a1-2)Gal(b1-4)GlcNAc6S
Method in brief: as §1

[9] = target: Fuc(a1-2)Gal(b1-4)[Fuc(a1-3)]GlcNAc
Method in brief: as §1

[10] = target: Fuc(a1-2)Gal(b1-4)[Fuc(a1-3)]GlcNAc(b1-3)Gal(b1-4)[Fuc(a1-3)]GlcNAc
Method in brief: as §1

[11] = target: Fuc(a1-2)Gal(b1-4)[Fuc(a1-3)]GlcNAc(b1-3)Gal(b1-4)[Fuc(a1-3)]GlcNAc(b1-3)Gal(b1-4)[Fuc(a1-3)]GlcNAc
Method in brief: as §1

Fuc(a1-2)Gal6S(b1-4)Glc = target: Fuc(a1-2)Gal6S(b1-4)Glc
Method in brief: as §1

[12] = target: Fuc(a1-2)Gal6S(b1-4)Glc6S
Method in brief: as §1

[13] = target: Fuc(a1-2)Gal6S(b1-4)GlcNAc
Method in brief: as §1

Fuc(a1-2)[Gal(a1-3)]Gal = target: Fuc(a1-2)[Gal(a1-3)]Gal
Method in brief: as §1

[14] = target: Fuc(a1-2)[Gal(a1-3)]Gal(b1-3)GlcNAc
Method in brief: as §1

[15] = target: Fuc(a1-2)[Gal(a1-3)]Gal(b1-4)Glc
Method in brief: as §1

[16] = target: Fuc(a1-2)[Gal(a1-3)]Gal(b1-4)GlcNAc
Method in brief: as §1

[17] = target: Fuc(a1-2)[Gal(a1-3)]Gal(b1-4)[Fuc(a1-3)]GlcNAc
Method in brief: as §1

[18] = target: Fuc(a1-2)[Gal(a1-4)]Gal(b1-4)GlcNAc
Method in brief: as §1

[19] = target: Fuc(a1-2)[GalNAc(a1-3)]Gal
Method in brief: as §1

[20] = target: Fuc(a1-2)[GalNAc(a1-3)]Gal(b1-3)GlcNAc
Method in brief: as §1

[21] = target: Fuc(a1-2)[GalNAc(a1-3)]Gal(b1-4)Glc
Method in brief: as §1

[22] = target: Fuc(a1-2)[GalNAc(a1-3)]Gal(b1-4)GlcNAc
Method in brief: as §1

[23] = target: Fuc(a1-2)[GalNAc(a1-3)]Gal(b1-4)[Fuc(a1-3)]GlcNAc
Method in brief: as §1

[24] = target: Fuc(a1-2)[GalNAc(a1-4)]Gal(b1-4)GlcNAc
Method in brief: as §1

[25] = target: Fuc(a1-2)[GalNAc(b1-3)]Gal
Method in brief: as §1

Fuc(a1-3)GlcNAc = target: Fuc(a1-3)GlcNAc
Method in brief: as §1

[26] = target: Fuc(a1-3)[Gal(b1-4)]Glc6S
Method in brief: as §1

[27] = target: Fuc(a1-3)[Gal(b1-4)]GlcNAc
Method in brief: as §1

[28] = target: Fuc(a1-3)[Gal(b1-4)]GlcNAc(b1-2)Man(a1-3)[Fuc(a1-3)[Gal(b1-4)]GlcNAc(b1-2)Man(a1-6)]Man(b1-4)GlcNAc(b1-4)GlcNAc
Method in brief: as §1

[29] = target: Fuc(a1-3)[Gal(b1-4)]GlcNAc(b1-2)Man(a1-6)[Gal(b1-4)GlcNAc(b1-2)Man(a1-3)]Man(b1-4)GlcNAc(b1-4)GlcNAc
Method in brief: as §1

[30] = target: Fuc(a1-3)[Gal(b1-4)]GlcNAc(b1-3)Gal(b1-3)[Fuc(a1-4)]GlcNAc
Method in brief: as §1

[31] = target: Fuc(a1-3)[Gal(b1-4)]GlcNAc(b1-4)Gal(b1-4)[Fuc(a1-3)]GlcNAc
Method in brief: as §1

[32] = target: Fuc(a1-3)[Gal(b1-4)]GlcNAc(b1-4)Gal(b1-4)[Fuc(a1-3)]GlcNAc(b1-4)Gal(b1-4)[Fuc(a1-3)]GlcNAc
Method in brief: as §1

[33] = target: Fuc(a1-3)[Gal(b1-4)]GlcNAc6S
Method in brief: as §1

[34] = target: Fuc(a1-3)[Gal3S(b1-4)]Glc6S
Method in brief: as §1

[35] = target: Fuc(a1-3)[Gal3S(b1-4)]GlcNAc
Method in brief: as §1

[36] = target: Fuc(a1-3)[Gal3S(b1-4)]GlcNAc6S
Method in brief: as §1

B1: MD-2 (Homo sapiens) (protein)
chain: MLPFLFFSTLFSSIFTEAQKQYWVCNSSDASISYTYCDKMQYPISINVNPCIELKGSKGLLHIFYIPRRDLKQLYFNLYITVNTMNLPKRKEVICRGSDDDYSFCRALKGETVNTTISFSFKGIKFSKGKYKCVVEAISGSPEEMLFCLEFVILHQPNSN
glycan array binding signal (z-score) (Fuc(a1-2)Gal): -0.344 | glycan array binding signal (z-score) (Fuc(a1-2)Gal(b1-3)GalNAc): -0.261 | glycan array binding signal (z-score) [1]: 0.083 | glycan array binding signal (z-score) [2]: -0.274 | glycan array binding signal (z-score) [3]: -0.162 | glycan array binding signal (z-score) (Fuc(a1-2)Gal(b1-3)GlcNAc): -0.291 | glycan array binding signal (z-score) [4]: -0.341 | glycan array binding signal (z-score) [5]: -0.334 | glycan array binding signal (z-score) (Fuc(a1-2)Gal(b1-4)Glc): -0.313 | glycan array binding signal (z-score) (Fuc(a1-2)Gal(b1-4)Glc6S): -0.279 | glycan array binding signal (z-score) (Fuc(a1-2)Gal(b1-4)GlcNAc): -0.057 | glycan array binding signal (z-score) [6]: -0.096 | glycan array binding signal (z-score) [7]: 0.156 | glycan array binding signal (z-score) [8]: -0.043 | glycan array binding signal (z-score) [9]: -0.341 | glycan array binding signal (z-score) [10]: -0.312 | glycan array binding signal (z-score) [11]: -0.248 | glycan array binding signal (z-score) (Fuc(a1-2)Gal6S(b1-4)Glc): -0.261 | glycan array binding signal (z-score) [12]: 2.35 | glycan array binding signal (z-score) [13]: -0.328 | glycan array binding signal (z-score) (Fuc(a1-2)[Gal(a1-3)]Gal): -0.346 | glycan array binding signal (z-score) [14]: -0.322 | glycan array binding signal (z-score) [15]: -0.422 | glycan array binding signal (z-score) [16]: -0.319 | glycan array binding signal (z-score) [17]: -0.443 | glycan array binding signal (z-score) [18]: -0.369 | glycan array binding signal (z-score) [19]: -0.333 | glycan array binding signal (z-score) [20]: -0.306 | glycan array binding signal (z-score) [21]: -0.074 | glycan array binding signal (z-score) [22]: -0.264 | glycan array binding signal (z-score) [23]: -0.413 | glycan array binding signal (z-score) [24]: -0.152 | glycan array binding signal (z-score) [25]: -0.302 | glycan array binding signal (z-score) (Fuc(a1-3)GlcNAc): -0.342 | glycan array binding signal (z-score) [26]: -0.026 | glycan array binding signal (z-score) [27]: -0.281 | glycan array binding signal (z-score) [28]: -0.106 | glycan array binding signal (z-score) [29]: -0.269 | glycan array binding signal (z-score) [30]: -0.22 | glycan array binding signal (z-score) [31]: -0.147 | glycan array binding signal (z-score) [32]: -0.473 | glycan array binding signal (z-score) [33]: -0.146 | glycan array binding signal (z-score) [34]: 0.52 | glycan array binding signal (z-score) [35]: -0.144 | glycan array binding signal (z-score) [36]: 1.79
